# Results from PubChem BioAssay AID624296 (National Center for Advancing Translational Sciences (NCATS), 2012).
# The campaign covered roughly 350,000 compounds. About 9,900 (2.8%) were called active. The inconclusive results got no clear call from the source; some entries with a clear call stand among them for comparison. Calls follow the shape of the dose curve; as a rule, active = well fitted activation curve with a large enough effect; inconclusive = small, poorly fitted or top-dose-only effect; inactive = no such curve, though single readings can be large or run the other way. Potencies of inconclusive entries are left out as doubtful fits.
# Assay: A quantitative high throughput screen for small molecules that induce DNA re-replication in MCF 10a normal breast cells. Also: nearly all actives have a fitted effect of over 50% in size. As to activity, positive = re-replication: % of control where 0% means no effect.
# Details: MCF 10A DNA re-replication, Hoechst nuclear intensity, 48 h; activity, positive = re-replication: at 46.1 µM (top of the series)
# Potency is read from the fitted curve at half-maximal effect; tags tell the direction and shape of the fitted curve.
Compound,Potency,"activity, positive = re-replication"
CC1(C)Cc2c(sc3[nH]c(=S)n(Cc4ccco4)c(=O)c23)CO1,"inconclusive [activator, single point]",–
O=C(Nc1cc(Cl)cc2c1-c1ccc(Cl)cc1C2O)C(Cl)Cl (configuration not stated),"inconclusive [activator, single point]",–
Cc1ccc(OCC(=O)N2CCN(c3nnc(-c4ccc(C)cc4)c4ccccc34)CC2)cc1,"inconclusive [activator, single point]",–
CS(=O)(=O)N(CC(O)CON=C1c2ccccc2-c2ccccc21)c1ccc(F)cc1 (configuration not stated),–,inactive: -5.43%
COc1ccc(NC(C)=[N+](C)CCNS(=O)(=O)c2ccc(Cl)cc2)cc1,–,inactive: -36.2%
Cc1ccccc1CN1CCNC(=O)C1CC(=O)NC1CCCCCCC1 (configuration not stated),–,inactive: 1.36%
CCn1c(=O)n(CC)c2cc(N3CCCC3)c(NC(=O)c3ccc(OC)c(Br)c3)cc21,"inconclusive [activator, partial curve, poor fit]",–
O=C(CC1(O)C(=O)N(Cc2ccc3c(c2)OCO3)c2ccccc21)c1ccccc1 (configuration not stated),"inconclusive [activator, single point]",–
Cc1cccn2c(=O)c3cc(S(=O)(=O)c4ccccc4)c(=N)n(Cc4ccc(F)cc4)c3nc12,"inconclusive [activator, partial curve, poor fit]",–
CCCCn1c(-c2cccc(C)c2)nc2cc3[nH]c(=O)c(C(C)C)nc3cc21,"inconclusive [activator, partial curve, poor fit]",–
Cc1ccc(NC(=O)c2ccc([N+](=O)[O-])cc2Cl)nc1,"inconclusive [activator, full curve, poor fit]",–
Cc1ccc(-n2nc(C)cc2Nc2ncc(Cl)cc2Cl)cc1,"inconclusive [activator, full curve, poor fit]",–
COc1ccc(C)cc1NC(=O)NNC(=O)C1CCC(C(C)(C)C)CC1 (configuration not stated),"inconclusive [activator, single point]",–
CC1Cc2ccccc2N1C(=O)c1cc2sccc2n1Cc1ccc(F)cc1 (configuration not stated),"inconclusive [activator, partial curve, poor fit]",–
O=C(NCCNc1ccnc2cc(Cl)ccc12)c1ccccc1F,–,inactive: 1.37%
Cc1ccc(Nc2nc3ccccc3o2)cc1F,"inconclusive [activator, single point]",–
O=c1oc(-c2ccc(Br)cc2)nc2ccccc12,"inconclusive [activator, single point]",–
O=C(/C(=C/O)N=Nc1ccccc1)c1ccc(Cl)cc1,"inconclusive [activator, partial curve, poor fit]",–
CCN(C(=O)COC(=O)CCC(=O)c1cccs1)c1ccccc1,–,inactive: 4.44%
CCCCn1nc(C(=O)Oc2ccc3c(C)cc(=O)oc3c2)c2ccccc2c1=O,"inconclusive [activator, single point]",–
CN(C)c1ccc(/C=N/c2cc(-c3ccccc3)nn2-c2ccccc2)cc1,"inconclusive [activator, partial curve, poor fit]",–
Cc1cnn(CCC(=O)NNC(=S)Nc2ccccc2)c1,–,inactive: -19.3%
CCN(C1CCCCC1)S(=O)(=O)c1ccc(S(=O)(=O)NCCc2ccncc2)cc1,"inconclusive [activator, single point]",–

Compound,Potency,"activity, positive = re-replication"
COc1ccc(NS(=O)(=O)c2ccc(S(=O)(=O)N3CCCC3)cc2)cc1Cl,–,inactive: 9.24%
C=CCNc1ncnc2c1[nH]c1ccc(C)cc12,"inconclusive [activator, single point]",–
COc1cccc(C(=O)N2CCC(n3nccc3NC(=O)CCOc3ccccc3)CC2)c1,"inconclusive [activator, single point]",–
COC(=O)c1ccc(CNC(=O)c2ccc(S(=O)(=O)N(C)c3ccccc3OC)cc2)cc1,"inconclusive [activator, partial curve, poor fit]",–
CCOc1ccc(Cn2c3ccc(OC)cc3c3nc4ccccc4nc32)cc1,active: 5.8 µM,–
Clc1ccccc1Cn1nnc(-c2ccccc2)n1,"inconclusive [activator, partial curve, poor fit]",–
COc1cc2oc3ccc(C#Cc4ccccn4)cc3c(=O)c2cc1OC,active: 20.6 µM,–
CC(=O)N1CCN(C(=O)COC(=O)/C=C/c2ccc(C(F)(F)F)cc2)CC1,–,inactive: -1.48%
CNC(=O)c1c(NC(=O)c2ccc(S(=O)(=O)N(C)c3ccccc3)cc2)sc2c1CCN(C(C)C)C2,active: 14.6 µM,–
N#Cc1c(NC(=S)NC(=O)Cc2cccs2)sc2c1CCCCC2,–,inactive: 6.21%
CCn1nc(C)c(NC(=O)CCSc2nc(-c3ccco3)cc(C(F)(F)F)n2)c1C,–,inactive: 10.5%
C/C(=N\NC(=S)NC(C)C)c1ccc(Cl)s1,"inconclusive [activator, partial curve, poor fit]",–
CCOC(=O)/C(=N\Nc1cccc(Cl)c1)Sc1nnc(-c2ccc(OC)cc2)n1C,–,inactive: 10.6%
O=C1NN(c2ccccc2)C(=O)/C1=C/c1ccc(Sc2ccc(Cl)cc2)o1,active: 4.61 µM,–
O=C(Nc1ccc(N2CCN(Cc3ccccc3F)CC2)cc1)c1ccccc1[N+](=O)[O-],"inconclusive [activator, partial curve, poor fit]",–
Cc1ccc(NC(=O)CSc2nc3c(c(=O)n(C)c(=O)n3C)n2C)cc1,"inconclusive [activator, full curve, poor fit]",–
CCNCC(=O)N1c2ccccc2CCc2ccc(NC(C)=O)cc21,–,inactive: 5.85%
O=C(CCc1ccccc1)N[C@@H]1c2ccccc2CC[C@H]1OCc1ccccc1,"inconclusive [activator, partial curve, poor fit]",–
COc1ccc(/C(O)=C2\C(=O)C(=O)N(c3cc(C)on3)C2c2ccc(OC)c(OC)c2)cc1OC (configuration not stated),"inconclusive [activator, single point]",–
COc1ccc(CNCC(O)(c2ccc(Cl)cc2)c2ccc(Cl)cc2)cc1,"inconclusive [activator, single point]",–
CNC(=O)CSc1nc2c(c(=O)n(C)c(=O)n2C)n1Cc1ccc(C)cc1,"inconclusive [activator, partial curve]",–
CC[C@]12C(=O)N(C)C[C@H]([C@@H]3C(=O)N(C)C(=O)[C@@H]31)N2C(=O)c1ccc(Cl)c(Cl)c1,–,inactive: -1.44%
COc1ccc(C2CC(c3ccccc3OC(=O)/C=C/c3ccccc3)=NN2C(C)=O)cc1 (configuration not stated),–,inactive: 2.97%

Compound,Potency,"activity, positive = re-replication"
CC1CNCCN1S(=O)(=O)c1cccc2cnccc12 (configuration not stated),"inconclusive [activator, single point]",–
O=C(C[n+]1ccccc1)Nc1c(Cl)cc(Cl)cc1Cl,"inconclusive [activator, single point]",–
O=C(N/N=C/c1cc(Br)ccc1O)c1ccncc1,"inconclusive [activator, partial curve, poor fit]",–
O=C(NCCc1csc(-c2cccnc2)n1)c1cccs1,–,inactive: 4.32%
CC(C)NC(=O)N(C)C[C@H]1Oc2ccc(NC(=O)C3CC3)cc2C(=O)N([C@H](C)CO)C[C@@H]1C,–,inactive: 5.8%
COCc1cc(C)nc(OCC(=O)N/N=C/c2ccccc2O)c1C#N,–,inactive: 8.07%
O=C(NC(=O)N1CCN(c2ccccc2)CC1)c1ccc(Cl)cc1,"inconclusive [activator, partial curve, poor fit]",–
CC(CNc1ccc(Cl)cc1)(CNc1ccc(Cl)cc1)[N+](=O)[O-],"inconclusive [activator, single point]",–
COc1cc(/C=c2/sc3nc(-c4ccccc4)c(-c4ccccc4)n3c2=O)cc(OC)c1OC,"inconclusive [activator, partial curve, poor fit]",–
O=C(c1cc(COc2c(F)cccc2F)on1)N1CCC(c2ccncc2)CC1,"inconclusive [activator, full curve, poor fit]",–
COC(=O)c1c(NC(=O)CSc2nnc(Cn3nnc4ccccc43)n2C)sc(C)c1C,"inconclusive [activator, single point]",–
CN(C)S(=O)(=O)c1cccc(NC(=O)Cc2ccc(Cl)cc2)c1,"inconclusive [activator, partial curve, poor fit]",–
O=C(C1CCCN(S(=O)(=O)c2ccc(F)cc2)C1)N1CCCCC1 (configuration not stated),"inconclusive [activator, single point]",–
CC(C)(C)c1ccc(C(=O)/C=C2\NC(=O)CS2)cc1,"inconclusive [activator, partial curve, poor fit]",–
COCCC(=O)N1CCC(n2nccc2NC(=O)c2ccccc2C)CC1,–,inactive: -1.27%
CCN1C(=O)/C(=C/C2=Cc3ccccc3OC2C)SC1=S (configuration not stated),"inconclusive [activator, full curve, poor fit]",–
OC(CN1CCNCC1)Cn1c2ccccc2c2ccccc21 (configuration not stated),"inconclusive [activator, single point]",–
COc1ccc(-c2cc(C(=O)Nc3cc(OC)c(OC)c(OC)c3)no2)cc1OC,"inconclusive [activator, single point]",–
CC(C)N(C)CCOC(=O)C1COc2ccccc2O1 (configuration not stated),–,inactive: -5.49%
Cc1cc(N2CCN(C)CC2)nc2ccc(NC(=S)N3CCCCC3)cc12,active: 18.4 µM,–
CCN1CCN(c2cc(C)c3cc(NC(=S)NCCCN4CCc5ccccc5C4)ccc3n2)CC1,–,inactive: -4.79%
